These results are taken from the supplement of paper PMC12217912.

First the molecules themselves.
B1: TEV protease; numbered along this chain (parent)
chain: MGESLFKGPRDYNPISSSICHLTNESDGHTTSLYGIGFGPFIITNKHLFRRNNGTLVVQSLHGVFKVKDTTTLQQHLVDGRDMIIIRMPKDFPPFPQKLKFREPQREERICLVTTNFQTKSMSSMVSDTSCTFPSGDGIFWKHWIQTKDGQCGSPLVSTRDGFIVGIHSASNFTNTNNYFTSVPKNFMELLTNQEAQQWVSGWRLNADSVLWGGHKVFMVKPEEPFQPVKEATQL

Some of the results follow. Sequences were assembled here from the parent chain. Inactive controls read about 0.05.
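Also: Bxb1 expression induced with 0.2% (w/v) L-rhamnose at OD600 near 0.5, cultures sampled hourly, flipped fraction per protease–substrate barcode pair counted by paired-end Illumina sequencing.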

In the assay the parent is B1. In words: raw area under fraction-flipped curve 0-4 h after induction (AUC4h, not background-subtracted), DNA-recorder readout of cleavage of the substrate (dimensionless); higher = more cleavage of the substrate by the protease variant. To be noted: temperature: 34 °C; time window: 0-4 h after rhamnose induction.
As for MGESLFKGPRDYNPISSSICHLTNESDGHTTSLYGIGFGPFIITNKHLFRRNNGTLVVQSLHGVFKVKDTTTLQQHLVDGRDMIIIRMPKDFPPFPQKLKFREPQREERICLVTTNFQTKSMSSMVSDTSCTFPSGDGIFWKHWIQTKDGQCGSPLVSTRDGFIVGIHSASNFTNTNNYFTSVPKNFMELLTNQEASQWVSGWRLNADSVLWGGHKVFMVKPEEPFQPVKEATQL [Q197S], the “area with substrate ENLDFQS” value came out at 0.058, the “area with substrate ENLEFQS” value was 0.0602, the “area with substrate ENLFFQS” value is 0.0908 and the “area with substrate ENLHFQS” value is 0.068. Moreover, the “area with substrate ENLIFQS” value came to 0.0825, the “area with substrate ENLKFQS” value was 0.0717, the “area with substrate ENLLFQS” value was determined as 0.0656 and the “area with substrate ENLNFQS” value was 0.0634. Also, the “area with substrate ENLQFQS” value came out at 0.0667 and the “area with substrate ENLRFQS” value was found to be 0.0746.
As to MGESLFKGPRDYNPISSSICHLTNESDGHTTSLYGIGFGPFIITNKHLFRRNNGTLVVQSLHGVFKVKDTTTLQQHLVDGRDMIIIRMPKDFPPFPQKLKFREPQREERICLVTTNFQTKSMSSMVSDTSCTFPSGDGIFWKHWIQTKDGQCGSPLVSTRDGFIVGIHSASNFTNTNNYFTSVPKNFMELLTNQEAPQWVSGWRLNADSVLWGGHKVFMVKPEEPFQPVKEATQL [Q197P], the “area with substrate ENLDFQS” value was determined as 0.0719, the “area with substrate ENLEFQS” value was 0.041, the “area with substrate ENLFFQS” value came to 0.0802 and the “area with substrate ENLKFQS” value worked out at 0.0841. Also, the “area with substrate ENLPFQS” value worked out at 0.0656 and the “area with substrate ENLRFQS” value is 0.0879.
On to MGESLFKGPRDYNPISSSICHLTNESDGHTTSLYGIGFGPFIITNKHLFRRNNGTLVVQSLHGVFKVKDTTTLQQHLVDGRDMIIIRMPKDFPPFPQKLKFREPQREERICLVTTNFQTKSMSSMVSDTSCTFPSGDGIFWKHWIQTKDGQCGSPLVSTRDGFIVGIHSASNFTNTNNYFTSVPKNFMELLTNQEAQQWVSGWRLNADSVLWGGHKVFMTKPEEPFQPVKEATQL [V220T], for which the “area with substrate ENLDFQS” value amounted to 0.0575, the “area with substrate ENLEFQS” value came to 0.0725, the “area with substrate ENLHFQS” value came to 0.076 and the “area with substrate ENLNFQS” value stood at 0.0615. The “area with substrate ENLRFQS” value was found to be 0.0753, the “area with substrate ENLSFQS” value worked out at 0.0751 and the “area with substrate ENLWFQS” value was 0.0706.
Consider MGESLFKGPRDYNPISSSICHLTNESDGHTTSLYGIGFGPFIITNKHLFRRNNGTLVVQSLHGVFKVKDTTTLQQHLVDGRDMIIIRMPKDFPPFPQKLKFREPQREERICLVTTNFQTKSMSSMVSDTSCTFPSGDGIFWKHWIQTKDGQCGSPLVSTRDGFIVGIHSASNFTNTNNYFTSVPKNFMELLTNQEAQQWVSGWRLNADLVLWGGHKVFMVKPEEPFQPVKEATQL [S209L], for which the “area with substrate ENLDFQS” value worked out at 0.0568, the “area with substrate ENLEFQS” value was determined as 0.0603, the “area with substrate ENLFFQS” value is 0.0884 and the “area with substrate ENLLFQS” value stood at 0.0567. The “area with substrate ENLNFQS” value is 0.0491, the “area with substrate ENLQFQS” value is 0.0621, the “area with substrate ENLSFQS” value was found to be 0.0611 and the “area with substrate ENLVFQS” value came to 0.065.
Turning to MGESLFKGPRDYNPISSSICHLTNESDGHTTSLYGIGFGPFIITNKHLFRRNNGTLVVQSLHGVFKVKDTTTLQQHLVDGRDMIIIRMPKDFPPFPQKLKFREPQREERICLVTTNFQTKSMSSMVSDTSCTFPSGDGIFWKHWIQTKDGQCGSPLVSTRDGFIVGIHSASNFTNTNNYFTSVPKNFMELLTNQEAQQWVSGWRLNADSVLWGGHKGFMVKPEEPFQPVKEATQL [V217G], the “area with substrate ENLDFQS” value worked out at 0.0454, the “area with substrate ENLEFQS” value was found to be 0.0536, the “area with substrate ENLHFQS” value was 0.0502 and the “area with substrate ENLKFQS” value is 0.0503. Moreover, the “area with substrate ENLLFQS” value was determined as 0.0528, the “area with substrate ENLPFQS” value came to 0.078, the “area with substrate ENLQFQS” value stood at 0.0552 and the “area with substrate ENLVFQS” value was 0.0637. For the same variant, the “area with substrate ENLWFQS” value stood at 0.0471.
Turning to MGESLFKGPRDYNPISSSICHLTNESDGHTTSLYGIGFGPFIITNKHLFRRNNGTLVVQSLHGVFKVKDTTTLQQHLVDGRDMIIIRMPKDFPPFPQKLKFREPQREERICLVTTNFQTKSMSSMVSDTSCTFPSGDGIFWKHWIQTKDGQCGSPLVSTRDGFIVGIHSASNFTNTNNYFTSVPKNFMELLTNQEAQQWVSGWRLNADSVLWGGHKVFMVKPEEPFRPVKEATQL [Q227R], the “area with substrate ENLDFQS” value worked out at 0.0536, the “area with substrate ENLMFQS” value came to 0.0779, the “area with substrate ENLNFQS” value amounted to 0.0614 and the “area with substrate ENLRFQS” value turned out to be 0.0689. Further, the “area with substrate ENLSFQS” value was found to be 0.0495.
With MGESLFKGPRDYNPISSSICHLTNESDGHTTSLYGIGFGPFIITNKHLFRRNNGTLVVQSLHGVFKVKDTTTLQQHLVDGRDMIIIRMPKDFPPFPQKLKFREPQREERICLVTTNFQTKSMSSMVSDTSCTFPSGDGIFWKHWIQTKDGQCGSPLVSTRDGFIVGIHSASNFTNTNNYFTSVPKNFMELLTNQEAQQWVSGWRLNADSVLWGGHKVFHVKPEEPFQPVKEATQL [M219H], the “area with substrate ENLDFQS” value came out at 0.0727, the “area with substrate ENLFFQS” value was 0.0746, the “area with substrate ENLGFQS” value came out at 0.0565 and the “area with substrate ENLHFQS” value came out at 0.0681. Besides, the “area with substrate ENLIFQS” value was 0.0737, the “area with substrate ENLKFQS” value was found to be 0.0565, the “area with substrate ENLMFQS” value is 0.0667 and the “area with substrate ENLNFQS” value turned out to be 0.0784. The “area with substrate ENLQFQS” value was 0.0634, the “area with substrate ENLRFQS” value amounted to 0.0628, the “area with substrate ENLSFQS” value is 0.0659 and the “area with substrate ENLVFQS” value is 0.0827.
As for MGESLFKGPRDYNPISSSICHLTNESDGHTTSLYGIGFGPFIITNKHLFRRNNGTLVVQSLHGVFKVKDTTTLQQHLVDGRDMIIIRMPKDFPPFPQKLKFREPQREERICLVTTNFQTKSMSSMVSDTSCTFPSGDGIFWKHWIQTKDGQCGSPLVSTRDGFIVGIHSASNFTNTNNYFTSVPKNFIELLTNQEAQQWVSGWRLNADSVLWGGHKVFMVKPEEPFQPVKEATQL [M188I], the “area with substrate ENLDFQS” value worked out at 0.0673, the “area with substrate ENLFFQS” value was determined as 0.0643, the “area with substrate ENLHFQS” value is 0.0696 and the “area with substrate ENLIFQS” value was determined as 0.0916. The “area with substrate ENLKFQS” value came out at 0.0995, the “area with substrate ENLLFQS” value worked out at 0.063, the “area with substrate ENLMFQS” value was determined as 0.104 and the “area with substrate ENLPFQS” value came to 0.0446. In addition, the “area with substrate ENLSFQS” value was 0.0489.
On to MGESLFKGPRDYNPISSSICHLTNESDGHTTSLYGIGFGPFIITNKHLFRRNNGTLVVQSLHGVFKVKDTTTLQQHLVDGRDMIIIRMPKDFPPFPQKLKFREPQREERICLVTTNFQTKSMSSMVSDTSCTFPSGDGIFWKHWIQTKDGQCGSPLVSTRDGFIVGIHSASNFTNTNNYFTSVPKNFMELLTNQEAQQWVSGWRLNADSVLWGQHKVFMVKPEEPFQPVKEATQL [G214Q], for which the “area with substrate ENLDFQS” value turned out to be 0.0486.
As for MGESLFKGPRDYNPISSSICHLTNESDGHTTSLYGIGFGPFIITNKHLFRRNNGTLVVQSLHGVFKVKDTTTLQQHLVDGRDMIIIRMPKDFPPFPQKLKFREPQREERICLVTTNFQTKSMSSMVSDTSCTFPSGDGIFWKHWIQTKDGQCGSPLVSTRDGFIVGIHSASNFTNTNNYFTSVPKNFMELLTDQEAQQWVSGWRLNADSVLWGGHKVFMVKPEEPFQPVKEATQL [N193D], the “area with substrate ENLDFQS” value is 0.0671, the “area with substrate ENLHFQS” value is 0.0469, the “area with substrate ENLKFQS” value was determined as 0.0735 and the “area with substrate ENLLFQS” value was 0.0914. Further, the “area with substrate ENLSFQS” value was 0.101.
With MGESLFKGPRDYNPISSSICHLTNESDGHTTSLYGIGFGPFIITNKHLFRRNNGTLVVQSLHGVFKVKDTTTLQQHLVDGRDMIIIRMPKDFPPFPQKLKFREPQREERICLVTTNFQTKSMSSMVSDTSCTFPSGDGIFWKHWIQTKDGQCGSPLVSTRDGFIVGIHSASNFTNTNNYFTSVPKNFMELLTRQEAQQWVSGWRLNADSVLWGGHKVFMVKPEEPFQPVKEATQL [N193R], the “area with substrate ENLDFQS” value was found to be 0.0731, the “area with substrate ENLFFQS” value was determined as 0.123, the “area with substrate ENLGFQS” value came out at 0.0701 and the “area with substrate ENLHFQS” value stood at 0.0627. Further, the “area with substrate ENLNFQS” value amounted to 0.0668.
